The results in this text go back to patent US11542275B2, “Substituted imidazolidin-2-one derivatives as PRMT5 inhibitors” (Aurigene Discovery Technologies Limited, priority 2018, dated 2023).

What is called IC50 is the concentration that gives 50% inhibition. Higher therefore signals weaker potency in that assay.

The target of the assay is PRMT5/MEP50 Complex (Homo sapiens (Human), UniProt O14744). Kind of assay: PRMT5 inhibition based on TR-FRET assay. The format is biochemical. Particulars: 32 nM PRMT5:MEP50 complex, 50 nM Histone-H4 peptide, 1 μM SAM, 90 minutes at room temperature. The source says:
Protein arginine methyltransferase 5 (PRMT5) is a type II arginine methyltransferase that catalyze mono- and symmetric demethylation on arginine residues of histone or non-histone proteins in presence of S-adenosylmethionine (AdoMet or SAM) a cofactor responsible for donating the methyl group. PRMT5 is reported to be overexpressed in several human cancers. To identify compounds that inhibit the PRMT5 and decrease its activity, a TR-FRET based assay has been established. Time-resolved fluorescence resonance energy transfer (TR-FRET) HTS assays are homogeneous proximity assays where the interaction of two dye-labeled binding partners is detected by the energy transfer between a donor and an acceptor dye, and the subsequent light emission by the acceptor dye. PRMT5 catalyzes Histone H4 peptide which is biotin tagged to the Lysine amino acid at carboxyl end, in presence of S-adenosyl-1-methionine (SAM) to methylate the peptide. The antibody specific to mono methylated H4 peptide (H4R3) with Ig conjugate binds to the methylated peptide, indirectly binding to the Europium lanthanide. […]
The compound dilutions were prepared as 7.5% DMSO stock solutions in assay buffer. […] The plates were then read on Victor-3 with Excitation at 340 nm and Emissions collected at 615 and 665 nm in TR-FRET protocol. […]
For orientation: In TR-FRET formats the signal depends on donor and acceptor labels being close together.

The compound `O=C1N(Cc2ccc(N3C4CCC3COC4)cn2)CCN1C[C@H](O)CN1CCc2ccccc2C1` [Compound 19, 1-((5-(3-oxa-8-azabicyclo[3.2.1]octan-8-yl)pyridin-2-yl)methyl)-3-((R)-3-(3,4-dihydroisoquinolin-2(1H)-yl)-2-hydroxypropyl)imidazolidin-2-one] registered an IC50 of 37 nM. This counts as double-digit nanomolar. In the case of `O=C1N(Cc2ncc(N3C4CCC3COC4)cc2F)CCN1C[C@H](O)CN1CCc2ccccc2C1` [Compound 30, 1-((5-(3-oxa-8-azabicyclo[3.2.1]octan-8-yl)-3-fluoropyridin-2-yl)methyl)-3-((R)-3-(3,4-dihydroisoquinolin-2(1H)-yl)-2-hydroxypropyl)imidazolidin-2-one] it was 92 nM.
